Laboratory results reported in the supplement of paper PMC11417369.
Some of the results follow.

These sequences were tested on PfAP2-HC AP2 domain (GST-tagged) (assay: gcPBM binding intensity (ln(normalized median fluorescence intensity)); higher = stronger DNA binding).
Procedure, shortened: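 Each value is the highest Masliner-normalised natural-log median intensity across replicate spots of either orientation of a probe. The probes were primer-extended double-stranded 36-bp intergenic genomic sequences on an Agilent 4 × 180k array, alongside negative controls, exposed for 1 h to GST-tagged P. falciparum DNA-binding domains expressed in E. coli. Bound protein was picked up with Alexa488 anti-GST antibody and scanned at 488 nm.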

Sequence | gcPBM binding intensity (ln)
AATTATTTATTGAGAGTGCAACAAATTATTTCAAAT [GTGCAC_site9461] | 9.35
ACATTTTAAATACGATGTACTTGAGTTTTTTTTAAA [XGTACX_site5833] | 9.47
CACCCACCCAGACACACACACACACCCCCACCCATA [CACACA_site367] | 11.6
AAGATGATAAAATATGTACACACAGTTTATACATTT [CACACA_site9341] | 9.83
TTATATATTAAGAAATGTACGAAAAAAAAAATTATA [XGTACX_site3893] | 9.45
AAAAAAAATTATATATGTACTTATTAATCCTTTTAT [XGTACX_site1387] | 9.62
TATAATAATAATAATAATAATAATAATAATAATAAT [CACACA_negctrl_site905] | 9.48
CGCATAAAGACAAGAACACACATATAGATTGTAGTA [CACACA_site3693] | 9.68
GAAATAAAAGATGGTTGTACACCGTTTTCTCATATA [XGTACX_site5368] | 9.57
TACATATATGATAAAAGTACATATAAATATACATAA [XGTACX_site3804] | 9.73
TATATGAATAAACATTGTACGTAAATATTAACTATC [XGTACX_site543] | 9.7
AAAGAGAACATAAGTACACACATGTTCTTTTAGTAA [CACACA_site2824] | 9.76
AAAAAAAAAAAAAAAACACACAAAAGCAAGAAAAAC [CACACA_site3198] | 10.3
AAAGTAAAAACACATACATGCATATACACATATAAC [TGCATGCA_site341] | 9.87
AATAGGAAAACCTATACACACTTTAAAAAAAATATA [CACACA_site4977] | 9.59
ATAAATATGTATTGCTGTACATATATATAAATTATC [XGTACX_site8411] | 9.68
TCAATAAGATTATAAAGTACTTTTGAAGATATTATA [XGTACX_site7489] | 9.45
TTTCTTATTTTTTTCACACACTAAACATTTCAAATG [CACACA_site5259] | 9.9
AAATATTTAAATATTATGTATGATTATATATATATA [CACACA_negctrl_site590] | 9.5
AAATAAATAAATAAATGTACACATATATATATATAT [XGTACX_site7787] | 9.68
TATATATTTAGTTAGTGTACAAGTTATTTAGTAGTT [XGTACX_site5133] | 9.68
TCTTTTAACAAATAATAAGCTAATTTATATTATTAT [GTGCAC_negctrl_site655] | 9.42

Sequence | gcPBM binding intensity (ln)
AAAAAAATAATGTATATATAAATTTATTTACATATG [GTGCAC_negctrl_site107] | 9.53
TAAAAAATAAGATATACACACATATATTTATTTATA [CACACA_site7158] | 9.67
CAAATAAATTAAAGGTGTACTTTTATAGTTACGACA [XGTACX_site3926] | 9.56
CATATTTTCTTGTGTACACATTTATTTTATACTATA [CACACA_site6032] | 10.2
TAAAAAATTTTCGCGTGTACGCAAGAAAAAAAAAAT [XGTACX_site3058] | 9.59
TTTTTGCCATATTACACACACACATGGAAACCCCCT [CACACA_site4994] | 10.4
ATATCCATAATAAAAACATGCAACAGAAAAAAAAAA [TGCATGCA_site497] | 9.82
AAGAGAAATATATATTGTACAATAATTTTATTTGGT [XGTACX_site7642] | 9.57
TATATATTAATATTTACACACATGCGCACCCATAAA [CACACA_site2410] | 9.84
ATTTTTGTTATTACATGTACCCATAATTATTATTAA [XGTACX_site3558] | 9.81
ACCGTGGGAGGACACACACACACACCCACATATATA [CACACA_site4339] | 10.8
TATTTATATTCCTTTACACACTCCATCTTATATCCA [CACACA_site3604] | 9.91
AACAATTATTTGTCGACACACGTATATGTTATTTAG [CACACA_site5046] | 10.2
ACAAAAAAATGAAAAGAAAAAGATATACCCCAATAT [CACACA_negctrl_site509] | 9.84
TATTAATTAAAAAAATGTACATAATTATAAATTTTT [XGTACX_site7994] | 9.45
TACGGTTGTTTATTTTGTACGTAAAAAATATATTAT [XGTACX_site8393] | 9.7
TAATATACATATATATGTACATATATATATATATAT [XGTACX_site2684] | 9.72
TTCCAAAAAATTATTACACACATATGAGCACATATA [CACACA_site4543] | 9.74
ATATTATTCTTATATTCACACAGTTTATATTTCCGT [CACACA_site5653] | 9.88
AAATTACATACACGCGCACACACAAAAAAAAAAAAA [CACACA_site1335] | 10.8
TTAAAAAATTATTGTAGTACATAGGAAATGAAAAAA [XGTACX_site155] | 9.63
TAAATTAAATATTATAAACACACATATATATTATTT [CACACA_site8189] | 9.67
